The whole screen tested about 39,000 compounds, of which about 220 (0.56%) showed activity. The list shows a part of the results.
tested on: Escherichia coli K-12 BW25113; assay: relative growth (OD600 normalised to plate interquartile mean) (fraction); higher = less growth inhibition, active = 0.2 or less; details: 50 µM; LB; incubation time: overnight (16-24 h)
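Also: static incubation at 37 °C against the wild-type strain, values averaged over two biological replicates.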

Compound	relative growth
C[C@@H]1CN([C@@H](C)CO)C(=O)c2cccc(NS(C)(=O)=O)c2O[C@@H]1CN(C)Cc1ccc(C(=O)Nc2ccccc2N)cc1	inactive: 1.02
O=C(O)c1cc(N=Nc2ccc(S(=O)(=O)Nc3ccccn3)cc2)ccc1O	inactive: 1.11
C[C@H](CO)N1C[C@H](C)[C@H](CN(C)S(=O)(=O)c2ccc(F)cc2)OCCCC[C@H](C)Oc2ccc(NS(C)(=O)=O)cc2C1=O	inactive: 0.985
CC1(C)C[C@H](c2nc(-c3ccccc3)cs2)CCS1	inactive: 1.05
COc1ccc(NC(=O)Nc2ccc3c(c2)C(=O)N([C@H](C)CO)C[C@H](C)[C@H](CN(C)Cc2ccc(C(=O)Nc4ccccc4N)cc2)O3)cc1	inactive: 0.962
C[C@@H]1CN([C@@H](C)CO)C(=O)c2cc(NC(=O)Nc3ccc(F)cc3)ccc2O[C@@H](C)CCCCO[C@@H]1CN(C)CC1CCCCC1	inactive: 0.968
C=CCOC(=O)[C@@H]1[C@H]2C(=O)O[C@H](c3ccccc3)[C@H](c3ccccc3)N2[C@H](c2ccc(OCCOC(=O)[C@@H]3C[C@@H]4C(=O)N[C@@H](CCCCN(C)C)C(=O)N4[C@@H]3c3ccc(O)cc3)cc2)[C@@]12C(=O)Nc1ccc(I)cc12	inactive: 1.04
CC(C)(C)[S@](=O)N1Cc2cc(C(=O)N3CCCCC3)nc(-c3cccc(-c4ccc(C#N)cc4)c3)c2[C@@H]1CCO	inactive: 1
C[C@H](CO)N1C[C@H](C)[C@@H](CN(C)Cc2ccc(-c3ccccc3)cc2)Oc2ccc(NS(=O)(=O)c3ccc(Cl)cc3)cc2CC1=O	inactive: 1.01
COc1ccc(S(=O)(=O)N(C)C[C@H]2OCCCC[C@H](C)Oc3ccc(NS(=O)(=O)c4cn(C)cn4)cc3C(=O)N([C@H](C)CO)C[C@H]2C)cc1	inactive: 0.985
C[C@@H]1CCCCO[C@H](CN(C)Cc2ccc3c(c2)OCO3)[C@@H](C)CN([C@H](C)CO)C(=O)c2cc(NC(=O)C3CCCCC3)ccc2O1	inactive: 1.02
C=CCN1C(=O)[C@]2(O[C@H](CCn3cc([C@H](O)c4ccccc4)nn3)[C@@H]([Si](C)(C)c3ccc(OC)cc3)[C@@H]2C)c2cc(N3CCOC3=O)ccc21	inactive: 0.912
COC1=CC(=O)C(O)=CC1=CC=Cc1ccccc1	inactive: 1.08
CO[C@H]1CN(C)C(=O)c2cc(NC(=O)c3ccccc3)ccc2OC[C@H](C)N(C(=O)CN(C)C)C[C@@H]1C	inactive: 0.938
COC(=O)[C@H]1CCC(=O)[C@H](C(=O)OC)C1	inactive: 0.993
COc1ccc(CN(C)C[C@@H]2Oc3ccc(NC(=O)Cn4cnnn4)cc3C(=O)N([C@@H](C)CO)C[C@H]2C)cc1	inactive: 0.973
